Results on 27 compounds are retold here after the supplement of paper PMC9174493.

Assay [1] relates to A549-Dual. In words: NF-kB reporter (SEAP) activity, viability-corrected, relative to vehicle (fold change vs vehicle); higher = more activation of STING-IRF / NF-kB immune response reporter. The conditions noted are these: 10 µM.
Assay [2] concerns A549-Dual. In words: ISRE reporter (Lucia luciferase) activity, viability-corrected, relative to vehicle (fold change vs vehicle); higher = more activation of STING-IRF / NF-kB immune response reporter. The conditions noted are these: 10 µM.

The list shows a part of the results. Single values of this set are uncertain. Values with irradiation are relative to irradiated vehicle.
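Wherever NF-kB reporter (SEAP) activity, viability-corrected, relative to vehicle is given: viability correction based on the alamar blue assay, with concentrations leaving 10% survival or less dropped.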

Regarding `CCCCCCCCCCCC(CC1OC(=O)C1CCCCCC)OC(=O)C(CC(C)C)NC=O` (stereo not drawn) [Orlistat], the NF-kB reporter amounted to 0.843 in assay [1] (irradiation: 8 Gy/4 fr) and 0.666 in assay [1] (irradiation: none). In addition, the figures for the ISRE reporter in assay [2] (irradiation: 8 Gy/4 fr) and in assay [2] (irradiation: none) were 0.667 and 1.31, respectively.

Take `Clc1ccc(C(Cn2ccnc2)OCc2ccc(Sc3ccccc3)cc2)c(Cl)c1.O=[N+]([O-])O` (stereo not drawn) [Fenticonazole Nitrate]: the values for the NF-kB reporter in assay [1] (irradiation: 8 Gy/4 fr) and in assay [1] (irradiation: none) were 0.467 and 0.708, respectively. For the same compound, the ISRE reporter was 0.291 in assay [2] (irradiation: 8 Gy/4 fr) and 0.582 in assay [2] (irradiation: none).

On to `CCCCCCCCCCCC(=O)O` [Lauric Acid], for which the NF-kB reporter in assay [1] (irradiation: 8 Gy/4 fr) is 0.785; in assay [1] (irradiation: none) it was 0.955. Further, the ISRE reporter in assay [2] (irradiation: 8 Gy/4 fr) is 0.888; in assay [2] (irradiation: none) it was 0.925.

Regarding `CS(=O)(=O)O.Oc1ccc(C2CNCCc3c2cc(O)c(O)c3Cl)cc1` (stereo not drawn) [Fenoldopam mesylate], the NF-kB reporter came out at 0.916 in assay [1] (irradiation: 8 Gy/4 fr) and 0.613 in assay [1] (irradiation: none). The ISRE reporter in assay [2] (irradiation: 8 Gy/4 fr) is 0.722; in assay [2] (irradiation: none) it was 0.471.

On to `O=C([O-])/C=C/c1ccc(Cn2ccnc2)cc1.[Na+]` [Ozagrel sodium], for which the NF-kB reporter in assay [1] (irradiation: 8 Gy/4 fr) was determined as 0.729; in assay [1] (irradiation: none) it was 0.654. Besides, the ISRE reporter was 0.713 in assay [2] (irradiation: 8 Gy/4 fr) and 0.58 in assay [2] (irradiation: none).

In the case of `NC(=O)NC(CCC(=O)O)C(=O)O` (stereo not drawn) [Carglumic Acid], the NF-kB reporter in assay [1] (irradiation: 8 Gy/4 fr) amounted to 0.991; in assay [1] (irradiation: none), 0.944. The ISRE reporter turned out to be 1.02 in assay [2] (irradiation: 8 Gy/4 fr) and 0.799 in assay [2] (irradiation: none).

Turning to `CCOC(=O)C1=C(COCCN)NC(C)=C(C(=O)OC)C1c1ccccc1Cl.O=S(=O)(O)c1ccccc1` (stereo not drawn) [Amlodipine Besylate], the NF-kB reporter was 0.911 in assay [1] (irradiation: 8 Gy/4 fr) and 0.879 in assay [1] (irradiation: none). For the same compound, the ISRE reporter was 1.07 in assay [2] (irradiation: 8 Gy/4 fr) and 2.25 in assay [2] (irradiation: none).

On to `CCCCCOc1ccc(-c2cc(-c3ccc(C(=O)NC4CC(O)C(O)NC(=O)C5C(O)C(C)CN5C(=O)C(C(O)CC(N)=O)NC(=O)C(C(O)C(O)c5ccc(O)c(OS(=O)(=O)[O][Na])c5)NC(=O)C5CC(O)CN5C(=O)C(C(C)O)NC4=O)cc3)no2)cc1` (stereo not drawn) [Micafungin Sodium], for which the NF-kB reporter in assay [1] (irradiation: 8 Gy/4 fr) worked out at 0.923; in assay [1] (irradiation: none), 0.865. For the same compound, the ISRE reporter in assay [2] (irradiation: 8 Gy/4 fr) turned out to be 0.801; in assay [2] (irradiation: none), 0.985.

For the compound `NC(=O)C1CCCN1C(=O)C(Cc1c[nH]cn1)NC(=O)C1CCC(=O)N1` (stereo not drawn) [Protirelin], the NF-kB reporter in assay [1] (irradiation: 8 Gy/4 fr) came to 0.784; in assay [1] (irradiation: none), 1.35. Besides, the ISRE reporter in assay [2] (irradiation: 8 Gy/4 fr) worked out at 0.586; in assay [2] (irradiation: none) it was 0.712.

As to `C[n+]1ccccc1/C=N/O.[I-]` [Pralidoxime Iodide], the NF-kB reporter was determined as 1.02 in assay [1] (irradiation: 8 Gy/4 fr) and 1.15 in assay [1] (irradiation: none). The figures for the ISRE reporter in assay [2] (irradiation: 8 Gy/4 fr) and in assay [2] (irradiation: none) were 0.891 and 0.736, respectively.

With `Cc1cc(C)nc(O)n1.O=C(Nc1ccc([N+](=O)[O-])cc1)Nc1ccc([N+](=O)[O-])cc1` [Nicarbazin], the values for the NF-kB reporter in assay [1] (irradiation: 8 Gy/4 fr) and in assay [1] (irradiation: none) were 0.664 and 0.821, respectively. The results for the ISRE reporter in assay [2] (irradiation: 8 Gy/4 fr) and in assay [2] (irradiation: none) were 0.371 and 0.601, respectively.

For the compound `CCC(=O)OC1CC(=O)OC(C)C/C=C/C=C/C(O)C(C)CC(CC=O)C(OC2OC(C)C(OC3CC(C)(O)C(OC(=O)CC)C(C)O3)C(N(C)C)C2O)C1OC` (stereo not drawn) [Midecamycin], the values for the NF-kB reporter in assay [1] (irradiation: 8 Gy/4 fr) and in assay [1] (irradiation: none) were 0.653 and 1.13, respectively. In addition, the ISRE reporter in assay [2] (irradiation: 8 Gy/4 fr) was 0.522; in assay [2] (irradiation: none) it was 0.792.

Take `Cc1ccnc(NS(=O)(=O)c2ccc(N)cc2)n1` [Sulfamerazine]: the figures for the NF-kB reporter in assay [1] (irradiation: 8 Gy/4 fr) and in assay [1] (irradiation: none) were 0.863 and 1.03, respectively. Moreover, the ISRE reporter in assay [2] (irradiation: 8 Gy/4 fr) worked out at 0.799; in assay [2] (irradiation: none) it was 0.723.

Regarding `O=C(O)/C=C/c1ccccc1` [Cinnamic acid], the results for the NF-kB reporter in assay [1] (irradiation: 8 Gy/4 fr) and in assay [1] (irradiation: none) were 0.86 and 0.891, respectively. In addition, the ISRE reporter in assay [2] (irradiation: 8 Gy/4 fr) amounted to 0.985; in assay [2] (irradiation: none), 0.726.

On to `CN(C)c1ccc(C(=C2C=CC(=[N+](C)C)C=C2)c2ccc(N(C)C)cc2)cc1.[Cl-]` [Crystal Violet], for which the NF-kB reporter was 1.17 in assay [1] (irradiation: 8 Gy/4 fr) and 2.02 in assay [1] (irradiation: none). Besides, the ISRE reporter in assay [2] (irradiation: 8 Gy/4 fr) came to 0.112; in assay [2] (irradiation: none) it was 0.755.

`COC1/C=C/OC2(C)Oc3c(C)c(O)c4c(c3C2=O)C2=NC3(CCN(CC(C)C)CC3)NC2=C(NC(=O)/C(C)=C/C=C/C(C)C(O)C(C)C(O)C(C)C(OC(C)=O)C1C)C4=O` (stereo not drawn) [Rifabutin]: the NF-kB reporter amounted to 1.1 in assay [1] (irradiation: 8 Gy/4 fr) and 1.22 in assay [1] (irradiation: none). In addition, the ISRE reporter stood at 1.43 in assay [2] (irradiation: 8 Gy/4 fr) and 1.38 in assay [2] (irradiation: none).

For `Cl.NC(CO)C(=O)NNCc1ccc(O)c(O)c1O` (stereo not drawn) [Benserazide HCl], the NF-kB reporter in assay [1] (irradiation: 8 Gy/4 fr) was found to be 0.759; in assay [1] (irradiation: none), 1.12. Also, the results for the ISRE reporter in assay [2] (irradiation: 8 Gy/4 fr) and in assay [2] (irradiation: none) were 0.83 and 1.25, respectively.

For the compound `NCCS` [2-Aminoethanethiol], the NF-kB reporter in assay [1] (irradiation: 8 Gy/4 fr) came to 0.709; in assay [1] (irradiation: none), 0.624. The values for the ISRE reporter in assay [2] (irradiation: 8 Gy/4 fr) and in assay [2] (irradiation: none) were 0.738 and 0.488, respectively.

`CN1C(CC(=O)c2ccccc2)CCCC1CC(O)c1ccccc1.Cl` (stereo not drawn) [Lobeline hydrochloride]: the NF-kB reporter in assay [1] (irradiation: 8 Gy/4 fr) was determined as 0.506; in assay [1] (irradiation: none), 0.683. Further, the ISRE reporter in assay [2] (irradiation: 8 Gy/4 fr) came to 0.643; in assay [2] (irradiation: none), 0.831.

Regarding `COc1c2c(cc3oc(CO)cc(=O)c13)OC(C(C)(C)O)C2` (stereo not drawn) [Cimifugin], the NF-kB reporter in assay [1] (irradiation: 8 Gy/4 fr) amounted to 1.94; in assay [1] (irradiation: none), 3.29. Further, the ISRE reporter in assay [2] (irradiation: 8 Gy/4 fr) was found to be 2.05; in assay [2] (irradiation: none), 8.35.

As to `COC(=O)C1=C(C)NC(C)=C(C(=O)OCCN2CCN(C(c3ccccc3)c3ccccc3)CC2)C1c1cccc([N+](=O)[O-])c1.Cl.Cl` (stereo not drawn) [Manidipine 2HCl], the NF-kB reporter in assay [1] (irradiation: 8 Gy/4 fr) was determined as 0.579; in assay [1] (irradiation: none), 1.26. For the same compound, the ISRE reporter in assay [2] (irradiation: 8 Gy/4 fr) turned out to be 0.628; in assay [2] (irradiation: none), 1.68.

Regarding `C1COC(NC(C2CC2)C2CC2)=N1.O=P(O)(O)O` [Rilmenidine Phosphate], the NF-kB reporter in assay [1] (irradiation: 8 Gy/4 fr) is 1.21; in assay [1] (irradiation: none), 0.729. Further, the ISRE reporter in assay [2] (irradiation: 8 Gy/4 fr) stood at 0.964; in assay [2] (irradiation: none) it was 0.581.

Consider `C=C1/C(=C\C=C2/CCCC3(C)C2CCC3C(C)/C=C/C(O)C2CC2)CC(O)CC1O` (stereo not drawn) [Calcipotriene], for which the results for the NF-kB reporter in assay [1] (irradiation: 8 Gy/4 fr) and in assay [1] (irradiation: none) were 0.604 and 0.998, respectively. The ISRE reporter in assay [2] (irradiation: 8 Gy/4 fr) came to 0.461; in assay [2] (irradiation: none) it was 1.16.

In the case of `CCOC(=O)c1ncn2c1CN(C)C(=O)c1cc(F)ccc1-2` [Flumazenil], the NF-kB reporter in assay [1] (irradiation: 8 Gy/4 fr) worked out at 0.638; in assay [1] (irradiation: none), 0.738. In addition, the ISRE reporter in assay [2] (irradiation: 8 Gy/4 fr) was 0.655; in assay [2] (irradiation: none), 0.757.

Regarding `CC(O)CO.CCOc1ccc(Cc2cc(C3OC(CO)C(O)C(O)C3O)ccc2Cl)cc1.O` (stereo not drawn) [Dapagliflozin propanediol monohydrate], the values for the NF-kB reporter in assay [1] (irradiation: 8 Gy/4 fr) and in assay [1] (irradiation: none) were 0.939 and 0.962, respectively. The ISRE reporter in assay [2] (irradiation: 8 Gy/4 fr) is 0.838; in assay [2] (irradiation: none), 0.941.

In the case of `CC(C)(CO)C(O)C(=O)NCCCO` (stereo not drawn) [D panthenol], the NF-kB reporter in assay [1] (irradiation: 8 Gy/4 fr) stood at 0.742; in assay [1] (irradiation: none), 0.554. In addition, the ISRE reporter in assay [2] (irradiation: 8 Gy/4 fr) was 0.715; in assay [2] (irradiation: none), 0.423.

As for `C=C(C)C1CC=C(C)CC1` [(S)-(-)-Limonene], the NF-kB reporter in assay [1] (irradiation: 8 Gy/4 fr) came to 1.05; in assay [1] (irradiation: none), 0.749. Moreover, the ISRE reporter in assay [2] (irradiation: 8 Gy/4 fr) stood at 1.19; in assay [2] (irradiation: none), 0.878.
